Assay results published in PubChem BioAssay AID1963576 (National Center for Advancing Translational Sciences (NCATS), 2024).
The campaign covered roughly 46,000 compounds. About 60 (0.1%) were called active. Not shown: some 3% with an inconclusive outcome. Calls follow the shape of the dose curve; as a rule, active = well fitted inhibition curve with a large enough effect; inconclusive = small, poorly fitted or top-dose-only effect; inactive = no such curve, though single readings can be large or run the other way. Some of the results follow.

Assay: Primary qHTS assay for Inhibitors of ovarian cancer metastasis using an organotypic tumor microenvironment (TME) model. Also: nearly all actives have a fitted effect of over 65% in size.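 As to activity change, negative = inhibition: plate controls were DMSO wells for no effect and tomatine positive control wells for full effect.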
Conditions: SKOV3ip1-GFP adhesion/invasion on 3D omental model, fluorescence; series mostly up to 45.8 µM; activity change, negative = inhibition: at the top concentration
How it was run: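 Adhesion/invasion was scored as fixed GFP-labeled SKOV3ip1 cell counts (488/509 nm), normalized to DMSO and tomatine controls. Cancer cells in serum-free medium, with four compound doses (0.36-46 umol/L), sat 2 hr at RT then 16 hr at 37 C on a 48 hr fibroblast/mesothelial/ECM culture.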

outcome, inactive:
Cc1ccc(C)c(NC(=O)CN2C(=O)CCc3cc(S(=O)(=O)N4CCCCC4)ccc32)c1, COc1ccccc1NC(=O)Cn1c(C)cc(C)c(C#N)c1=O, COc1ccc2[nH]c3c(c2c1)CCN(C(=O)CCC1CCCC1)C3c1ccc(F)cc1 (configuration not stated), CC(C)(C)c1ccc(C(=O)NCC(=O)OCc2cc(=O)n3nc(C4CC4)sc3n2)cc1, CCn1c(=O)c2cc(C(=O)NCc3cc(OC)ccc3OC)sc2c2ccccc21, COc1ccc(NC(=O)C2CCCN(S(=O)(=O)c3c(C)[nH]c(=O)[nH]c3=O)C2)cc1OC (configuration not stated), O=C(NCc1ccc(Cl)cc1)C1CCN(S(=O)(=O)c2cccc3nonc23)CC1, CC(C)Cn1cc(NC(=O)N2CCN(c3ccc(F)cc3)CC2)c2ccccc2c1=O, COc1ccc2c(CNCc3cccs3)c(C(=O)O)n(Cc3ccc(F)cc3)c2c1, COCCNC(=O)c1ccc2c(c1)N(Cc1cc(C)ccc1C)C(=O)c1ccccc1S2=O (configuration not stated), Cc1ccc2c(CNC3CCCCC3)c(C(=O)O)n(Cc3ccc(F)cc3)c2c1, CCCS(=O)(=O)N1CC(=O)N(c2cccc(Cl)c2)C(C)(C(=O)NC2CCCCC2)C1 (configuration not stated), CCN1C(=O)c2ccccc2S(=O)(=O)c2ccc(C(=O)NCc3ccc(F)cc3)cc21, c1ccc(N2CCN(c3ncnc4c3nc3n4CCCCC3)CC2)cc1, CC1=C(C(=O)Nc2cccnc2)C(c2ccc(F)cc2)n2nc(SCc3ccccc3)nc2N1 (configuration not stated), CCCCNC(=O)CSc1nc2ccccc2nc1Cc1ccccc1, Cc1ccc(N2CC(NC(=O)C3CCCC3)CC2=O)cc1 (configuration not stated), CCOc1ccc(Nc2ncnc3onc(-c4ccc(Cl)cc4)c23)cc1, CC(=O)N1c2ccccc2CC1C(=O)N1CCN(c2ccccc2F)CC1 (configuration not stated), CCOC(=O)C1=C(CNCc2ccc(Cl)cc2)NC(=O)NC1c1ccccc1 (configuration not stated), COc1cc(NC(=O)Cn2cc(S(=O)(=O)N3CCC(C)CC3)c3ccccc3c2=O)cc(OC)c1OC, CCOC(=O)c1ccc(NC(=O)C2CCCN(c3cnccn3)C2)cc1 (configuration not stated), CC(=O)c1ccc(N2CCN(S(=O)(=O)c3ccc(-c4cnc(C5CC5)o4)cc3)CC2)cc1, CN(C)c1ccc(CNC(=O)C2CCN(C(=O)c3ccc(-n4ccc5ccccc54)s3)CC2)cc1

Activity change, negative = inhibition, inactive:
O=C(CCCCn1c(=O)c2ccccc2n(Cc2cccc(F)c2)c1=O)NCCc1ccccc1 -3.38%, CC(C)(C)OC(=O)N1CCC(c2c(C(=O)N3CCN(c4ccccn4)CC3)cnn2-c2ccc(F)cc2F)CC1 46.5%, Cc1ccc(-c2cnc(C3CC3)o2)cc1S(=O)(=O)Nc1cccc(C)c1C 2.46%, O=C(CSc1nccn1-c1ccc(F)cc1)Nc1nc2ccccc2s1 -4.31%, Cc1cccc(Cn2c(-c3ccccc3)nc3ccccc32)c1 -0.709%, O=C(CC1N=C2c3ccccc3N=C(SCc3ccc(F)cc3)N2C1=O)NCCc1ccccc1 (configuration not stated) -2.49%, COc1ccc(CC(C)NS(=O)(=O)c2ccc3c(c2)CCN3S(C)(=O)=O)cc1OC (configuration not stated) 17.3%, COC(=O)c1c(NC(=O)c2ccc(OC)cc2OC)sc2c1CCCCC2 6.07%, COc1ccc(Cl)cc1NCc1nnc2n1CCCCC2 39.2%, COc1ccc(NC(=O)c2oc3ccccc3c2NC(=O)c2cc(=O)c3cc(Cl)ccc3o2)cc1 -5.39%, CCCNC(=O)Nc1ccc(Oc2ncnc3cc(OC)c(OC)cc23)cc1Cl -22.1%, Cc1ccc(NC(=O)C2CCCN(c3ncnc4c3nc3n4CCCCC3)C2)c(Br)c1 (configuration not stated) -9.71%, CCN1CCN(c2csc3ccc(Br)cc3c2=O)CC1 3.14%, Cc1cc(C)cc(-n2c(SCC(=O)Nc3ccccc3)nc3c(oc4ccccc43)c2=O)c1 -19.7%, CCOc1ccc2nc(NC(=O)c3nc(SCc4ccccc4F)ncc3Cl)sc2c1 3.76%, CCC(Cc1ccccc1)NC(=O)Cn1nc(C)n2c(cc3occc32)c1=O (configuration not stated) 9.84%, COc1cc(OC)cc(-c2nc3nc(C)c(CCC(=O)Nc4cc(C)cc(C)c4)c(C)n3n2)c1 -8.04%, CCCCn1c(=O)n(CC2CCC(C(=O)NCCCOC)CC2)c(=O)c2sccc21 (configuration not stated) 13.8%, Cc1ccc(-n2nc3c(=O)n(C(C)C(=O)NCc4ccc(OC(C)C)cc4)nc(C)c3c2C)cc1 (configuration not stated) -9.69%, Cc1ccc2nc(COc3cccc(NC(=O)Nc4ccc(C)c(Cl)c4)c3)cc(=O)n2c1 -4.57%, O=C(Cn1c(SCc2ccc(F)cc2)nc2cccnc21)Nc1ccccc1F -1.19%, COc1cccc(-c2cc(C(=O)NCCc3ccc(OC)c(OC)c3)no2)c1 -11.2%, Cc1cc(=O)[nH]c2nnc(SCc3ccc(Cl)cc3Cl)n12 0.204%, CC(=O)c1cccc(NC(=O)c2sc(-n3nc(C)c(Cc4ccccc4)c3C)nc2C)c1 -9.61%, O=C(Nc1ccc(F)c(Cl)c1)c1ccc2c(Cl)c3c(nc2c1)CCCC3 58.7%, CC(=O)OCC(=O)[C@@]1(O)[C@H](C)C[C@H]2[C@@H]3C=C(C)C4=Cc5c(cnn5-c5ccccc5)C[C@]4(C)[C@@H]3[C@@H](O)C[C@@]21C -1.92%, CCOc1ccccc1CNC(=O)c1cc2c(=O)n(Cc3cccnc3)ccc2nc1C -7.9%, COc1cccc2cc(-c3nc(-c4ccccc4F)no3)c(=O)oc12 3.28%, Cc1ccc(CNC(=O)CN2C(=O)COc3ccc(S(=O)(=O)N4CCC(C)CC4)cc32)cc1 -5.13%, C[C@]1(c2nc3c(C(N)=O)cccc3[nH]2)CCCN1 -16.7%, Cc1ccc(NC(=O)Cc2coc3c(C)c(C)ccc23)c(C)c1 -0.551%, Cc1ccc(-n2cc(C(=O)OCc3ccc(Cl)cc3)c3ccccc3c2=O)cc1 23.7%, COc1ccc(NC(=O)c2ccc3[nH]c(C)cc(=O)c3c2)cc1 2.99%, CCCCCCn1c(/C=C/c2ccccc2)nc2ccccc21 -0.134%, Cc1ccc(/C=C/C(=O)Nc2ccc(Cl)cc2Cl)cc1 -7.37%, CSc1cccc(NC(=O)c2ccc3c(c2)CCCN3S(C)(=O)=O)c1 -2.85%, CCN(CC)c1ccc(-c2nc(-c3ccccn3)no2)cc1[N+](=O)[O-] 0.486%, CN1c2ccccc2-c2nc(SCC(=O)Nc3ccccc3)ncc2S1(=O)=O 1.31%, CCc1nn(CCCC(=O)NCc2ccc(OC)c(OC)c2)c(=O)c2cc3occc3n12 -7.08%, CCN(CCCNC(=O)c1ccc(Sc2ccc(Cl)cc2)c(NC(C)=O)c1)c1cccc(C)c1 1.42%, COC(=O)C1CCN(c2csc3ccc(C)cc3c2=O)CC1 7.39%, Cc1ccc(C)c(NC(=O)CN(Cc2ccccc2)S(=O)(=O)c2ccc3nc(C)sc3c2)c1 15.4%, O=C(CSc1oc(-c2ccco2)nc1S(=O)(=O)c1ccc(Br)cc1)c1ccc(Cl)cc1 -18.8%, Cc1cc(Br)ccc1NC(=O)c1sc2ncn(Cc3ccccc3Cl)c(=O)c2c1C -11.8%, Cc1ccc(-n2ncc3c(NCc4ccccc4)ncnc32)cc1C 2.82%, COc1cc(C2Oc3nc(SC)nnc3-c3ccccc3N2C(C)=O)cc(Cl)c1OC (configuration not stated) -8.58%, CC(NC(=O)C1CCN(C(=O)N2CCOc3ccccc32)CC1)c1ccccc1 (configuration not stated) 5.88%, COc1cc(OC)c(NC(=O)CSc2nc3ccncc3[nH]2)cc1Cl 5.86%, CC1CCN(S(=O)(=O)c2cccc(C(=O)N(C)C3(C)CCS(=O)(=O)C3)c2)CC1 (configuration not stated) 4.77%, Cc1cccc(NC(=O)CCS(=O)(=O)c2cc(Br)cc3c2N(C(=O)C2CC2)CC3)c1C 4%, CCCNC(=O)Cn1nc(C)c2c(C)n(-c3ccccc3)nc2c1=O -2.42%, Cc1ccc(C(=O)c2cn(CC(=O)Nc3ccc4c(c3)OCCO4)c3nc(C)ccc3c2=O)cc1 -14.2%, CCOc1ccc(Nc2c(S(=O)(=O)c3ccccc3)cnc3ccc(CC)cc23)cc1 -14.9%, COc1cccc(N2CCN(C(=O)Cn3ncc4c3-c3ccccc3OC4)CC2)c1 2.8%, CC(C)CCNC(=O)c1ccc(NC(=O)N2CCCCc3ccccc32)cc1 1.5%, O=C(CSc1nc2ccccc2n1Cc1ccccc1)NCc1ccccc1 0.637%, CC(C)CC(NC(=O)C1CCC(C)CC1)C(=O)OCC(=O)c1ccc(Cl)cc1 (configuration not stated) -7.07%, CSc1oc(-c2ccc(F)cc2)nc1S(=O)(=O)c1ccc(Br)cc1 -14.8%, COc1ccc(NC(=O)c2ccco2)cc1NC(=O)c1ccc(OC(C)C)cc1 6.49%, Cc1cc(C)cc(OC(C)C(=O)Nc2nc3c(s2)CCCC3)c1 (configuration not stated) -5.62%, COc1cn(CC(=O)Nc2cccc(C)c2)c(CN2CCCCC2)cc1=O -0.823%, COc1ccc(CCNC(=O)Cn2nc(-c3ccc(Cl)cc3)ccc2=O)cc1OC 1.25%, CCCC(C(=O)Nc1cc(C)c(Cl)cc1OC)N1Cc2ccccc2C1=O (configuration not stated) -0.279%, COc1cccc(/C=C(\C#N)c2nc3ccccc3c(=O)[nH]2)c1OC -2.15%, COc1ccc(Oc2ncnc3c2oc2ccccc23)cc1 -8.81%, Cc1nc2sccn2c(=O)c1S(=O)(=O)Nc1cccc(Cl)c1C 15.3%, Cc1ccc(OCC(=O)Nc2ccc(C(=O)OCc3cc(=O)n4ccsc4n3)cc2)cc1C -3.79%, Cc1ccc(NC(=O)N2CCC(CN3CCCCC3)CC2)c(Cl)c1 12.9%, CCOC(=O)c1cc(-c2ccc(OC)cc2)n(CCC(=O)NCCc2ccc(OCC)c(OCC)c2)c1C -14.2%, CCn1cc(/C=C(\NC(=O)c2ccc(OC)c(OC)c2)C(=O)NCCCn2ccnc2)c2ccccc21 13.1%, Cc1ccccc1Nc1nnc(-c2ccc(C)c(S(=O)(=O)NCC3CCCO3)c2)c2ccccc12 (configuration not stated) 2.69%, CCOC(=O)c1c(-c2ccc(OC)cc2)oc2ccc(OCc3ccc(F)cc3F)cc12 -1.57%, CC(C)(C)OC(=O)N1CCC(c2c(C(=O)N3CCN(c4ncccn4)CC3)cnn2-c2ccc(F)cc2)CC1 -19.2%
